Experimental data as given in PubChem BioAssay AID902 (National Center for Advancing Translational Sciences (NCATS), 2007).
About 1,900 (1.5%) of roughly 130,000 compounds were called active. The inconclusive results got no clear call from the source; some entries with a clear call stand among them for comparison. The call rests on the fitted dose curve; in most records, active means well fitted cell-killing curve with a large enough effect; inconclusive means small, poorly fitted or top-dose-only effect; inactive means no such curve, though single readings can be large or run the other way. A potency beside an inconclusive call is a rough fit, not a confirmed value.

assay: qHTS Screen for Compounds that Selectively Target Cancer Cells with p53 Mutations: Cytotoxicity of p53ts Cells at the Nonpermissive Temperature; settings: H1299-p53A138V viability at 39C, ATP luminescence, 24 h; activity change, negative = cell killing: at 46.1 µM (top of the series); further: nearly all actives have a fitted effect of over 55% in size
On the % scale 0 is the no-effect control and ±100 the full control effect; potency means the concentration at half of the fitted maximal effect; tags describe the fitted curve by direction and shape.

Compound	Potency	activity change, negative = cell killing
CCc1cc2cc(C(=O)Nc3ccc(F)cc3)sc2s1	inactive	–
Nc1ccc(Nc2ccccc2N)cc1	inconclusive: 31.6 µM [cytotoxic, single point]	–
COc1cc(OC)cc(C(=O)Nc2cccc(-c3cn4ccsc4n3)c2)c1	inconclusive: 15.8 µM [cytotoxic, single point]	–
CCc1cccc(C)c1NC(=O)c1cc(S(=O)(=O)N2CCN(c3ccccc3)CC2)ccc1F	inactive	–
CCC1CCCCN1S(=O)(=O)c1ccc(C(=O)Nc2nnc(-c3cccs3)o2)cc1 (configuration not stated)	active: 15.8 µM	–
Cc1ccc(N(CC(=O)N2CCN(c3cccc(C)c3C)CC2)S(=O)(=O)c2c(C)nn(C)c2C)cc1	inconclusive: 10 µM [cytotoxic, single point]	–
Fc1cccc(Cl)c1CSc1nnc(COc2cccc3cccnc23)o1	inconclusive: 3.98 µM [cytotoxic, full curve, poor fit]	–
O=S(=O)(Nc1cccc(-c2ccc(N3CCOCC3)nn2)c1)c1ccc(F)c(C(F)(F)F)c1	inconclusive: 15.8 µM [cytotoxic, partial curve, poor fit]	–
COc1cc(OC)c2c(C)c(CC(=O)NCc3ccccc3OC)c(=O)oc2c1	inconclusive: 15.8 µM [cytotoxic, partial curve]	–
O=C(NCCc1ccc(Cl)cc1)c1cc2c(s1)-c1ccccc1OC2	inconclusive: 15.8 µM [cytotoxic, single point]	–
Cc1cc(=O)n(Cc2ccc(Br)cc2F)c2c1c(C)nn2-c1ccccc1	inconclusive: 0.0251 µM [cytotoxic, full curve, poor fit]	–
COC(=O)c1ccc2c(c1)N(CC(=O)Nc1ccc(C)cc1Cl)C(=O)c1ccccc1S2	inconclusive: 6.31 µM [cytotoxic, full curve, poor fit]	–
CCc1ccc(-c2[nH]nc3nc(-c4cc(OC)ccc4OC)cc(C(=O)O)c23)cc1	active: 3.98 µM	–
CCOC(=O)c1cc(C)sc1N1C(=O)C2C3C=CC(C3)C2C1=O (configuration not stated)	inactive	–
Cc1oc2c(C)c3oc(=O)c(CCC(=O)N4CCCCC4)c(C)c3cc2c1C	inactive	–
CC(C)(C)c1ccc(C(=O)Nc2nnc3n2CCS3)cc1	active: 12.6 µM	–
c1cc(-c2nc3ccccc3o2)nc(-c2nc3ccccc3o2)c1	inactive	–
O=C(Nc1cccc(C(F)(F)F)c1)C1CCCN(S(=O)(=O)c2cccc3nonc23)C1 (configuration not stated)	inconclusive: 31.6 µM [cytotoxic, single point]	–
Cc1ccc(Cn2c(CO)cnc2SCC(=O)Nc2cccc(F)c2)cc1	inactive	–
CCCn1nnc(NC(=O)c2sc3ccccc3c2Cl)n1	inconclusive: 7.94 µM [cytotoxic, partial curve]	–
Cc1ccc(N(CC(=O)NCCc2ccc(F)cc2)S(=O)(=O)c2ccc(Cl)c([N+](=O)[O-])c2)c(C)c1	inconclusive: 28.2 µM [cytotoxic, single point]	–

Compound	Potency	activity change, negative = cell killing
CCN(CC)CCNC(=O)C1CCCN(c2nnc(C)c3c(C)n(-c4ccc(Cl)cc4)nc23)C1 (configuration not stated)	inconclusive: 0.794 µM [cytotoxic, full curve, poor fit]	–
CCOc1ccc(Sc2cc(C(=O)NCCCOC)c3ccccc3n2)cc1	inconclusive: 15.8 µM [cytotoxic, partial curve]	–
CCOC(=O)c1cc(-c2ccc(C)cc2)n(CCC(=O)NCc2ccccc2)c1C	inconclusive: 0.005 µM [cytotoxic, full curve]	–
O=C(NCCc1nc2ccccc2n1CCOc1ccc(Cl)cc1)C1CCCCC1	inconclusive: 31.6 µM [cytotoxic, single point]	–
O=C(Nc1ccc(NC(=O)c2ccco2)nc1)c1cccnc1	active: 12.6 µM	–
CCc1ccc2oc(-c3cc(N)ccc3Cl)nc2c1	active: 10 µM	–
c1ccc(-c2nnc3sc(-c4csc5c4CCCC5)nn23)cc1	inconclusive: 25.1 µM [cytotoxic, single point]	–
O=C1CC(c2ccccc2)Cc2[nH]c(=O)c(-c3nc(-c4ccc(F)cc4)cs3)cc21 (configuration not stated)	inconclusive: 0.01 µM [cytotoxic, full curve, poor fit]	–
Cc1ccc(-c2nc(Nc3ccccc3)n[nH]2)cc1	inactive	–
COc1cccc(-c2cc(C(=O)N/N=C/c3ccccc3O)[nH]n2)c1	active: 10 µM	–
COc1ccc(-c2cc(C(F)(F)F)nc(S(=O)(=O)CCC(=O)N3CCOCC3)n2)cc1	inconclusive: 31.6 µM [cytotoxic, single point]	–
Cc1ccc(NC(=O)CNc2cccc(C)c2C)c(C)c1	inconclusive: 12.6 µM [cytotoxic, partial curve]	–
CCc1ccc(NC(=O)N(Cc2c[nH]c3ccccc23)C2CCCCCC2)cc1	inactive	–
COc1ccc(N2CCN(C(CNC(=O)C(=O)NCc3ccc(F)cc3)c3cccnc3)CC2)cc1 (configuration not stated)	inconclusive: 25.1 µM [cytotoxic, single point]	–
CCCCN1C(=O)C(O)(c2c(C)[nH]c3ccccc23)c2cc(Br)ccc21 (configuration not stated)	inconclusive: 31.6 µM [cytotoxic, single point]	–
Cc1cccc(Cc2c(C)nc3c(C(=O)NCc4ccco4)cnn3c2C)c1	inconclusive: 31.6 µM [cytotoxic, single point]	–
Cc1cc(NC(=O)C2CCCN(S(=O)(=O)c3ccc(Br)s3)C2)ccc1Br (configuration not stated)	inconclusive: 10 µM [cytotoxic, partial curve]	–
N#C/C(=C\c1ccc(O)c(O)c1)C(=O)Nc1ccccc1	inconclusive: 10 µM [cytotoxic, full curve]	–
CCOC(=O)OCC1OC(C#Cc2ccccc2)C=CC1Oc1cccc(N(C)C)c1 (configuration not stated)	–	inactive: -20.2% [at 9.22 µM]
CCCC[C@H]1C[C@@H]1[C@@H]1N(P(=O)(c2ccccc2)c2ccccc2)[C@](CO)(c2ccccc2)CC12CC2	inconclusive: 31.6 µM [cytotoxic, single point]	–
CCCn1c(C)cc(C(=O)COC(=O)c2ccc(Cl)c(S(=O)(=O)N3CCCC3)c2)c1C	inconclusive: 10 µM [cytotoxic, partial curve]	–
